Assay results from PubChem BioAssay AID1671193 (National Center for Advancing Translational Sciences (NCATS), 2021).
Where “and” joins values, the source holds several entries; their conditions need not be identical. Identical values can stand only once. Out of some 150,000 compounds screened, about 180 (0.12%) were called active. The shares of active, inactive and inconclusive entries below differ from those in the screen. Calls follow the shape of the dose curve; as a rule, active = well fitted cell-killing curve with a large enough effect; inconclusive = small, poorly fitted or top-dose-only effect, or effect the other way; inactive = flat fitted curve, though single readings scatter. A potency beside an inconclusive call is a rough fit, not a confirmed value.

Test: GF-AFC viability counterscreen for inhibitors of alpha-synuclein gene (SNCA) expression; also: nearly all actives have a fitted effect of over 30% in size;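 as to activity change, negative = cytotoxicity: 0% = DMSO-treated cells and -100% = medium-only wells without cells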
Details: HEK-293-SNCA-luc viability, GF-AFC fluorescence, 24 h; activity change, negative = cytotoxicity: at 57.1 µM (top of the series) unless noted
Summary of the method: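 HEK-293-SNCA-luc cells (1500/well) plated 24 h, then exposed 24 h to a dilution series; GF-AFC added 30 min at 37C, fluorescence 405/540 nm; normalised to medium-only and DMSO wells, Hill fit.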
Potency is read from the fitted curve at half-maximal effect; tags tell the direction and shape of the fitted curve.

Compound | Potency | activity change, negative = cytotoxicity
CC(=O)N1CCN(c2nc3c(s2)CC(C(=O)Nc2cccc(C(C)(C)C)c2)CC3)CC1 (stereo not given) | inconclusive: 39.8 µM [cytotoxic, single point] | 
O=C(NC1CCC1)c1ccc2nccn2c1 |  | inactive: -0.982% [at 87.6 µM]
CCNC(=O)c1cc(NC(=O)CC)cc2nc(C)ccc12 |  | inactive: 6.2%
Cc1ccc(OC2(C(=O)O)CCN(C(=O)C3CCOCC3)CC2)cc1 |  | inactive: 10.7%
Oc1ccc(Nc2nc(-c3ccc(Cl)cc3)nc3ccccc23)cc1 | inconclusive: 17.8 µM [cytotoxic, partial curve, poor fit] | 
CCOCCCn1c(=N)c(C(=O)NC2CCCC2)cc2c(=O)n3cccc(C)c3nc21 | inconclusive: 5.01 µM [rising, single point] | 
O=C(c1cccc(Cl)c1)N1CCC2(CC1)OCC(C(=O)N1CCCC1)N2C(=O)c1cccc(F)c1 (stereo not given) | inconclusive: 10 µM [cytotoxic, partial curve, poor fit] | 
COc1ccc(-c2nc3scc(CCNS(=O)(=O)c4cccc(C(C)=O)c4)n3n2)cc1 | inconclusive: 5.01 µM [cytotoxic, full curve] | 
CCOC(=O)c1ccc(NC(=O)c2cc3c(n(-c4ccc(C)cc4)c2=O)CC(C)(C)CC3=O)cc1 | inconclusive: 22.4 µM [rising, partial curve, poor fit] | 
O=C1NCCN2CC3(CCN(S(=O)(=O)c4ccccc4)CC3)CC12 (stereo not given) | inconclusive: 39.8 µM [cytotoxic, single point] | 
COCC1CN(C2CCC2)CC12CCN(C(=O)c1ccc(F)cc1)CC2 (stereo not given) |  | inactive: -7.52%
Cc1ccc(-c2nnc(Nc3ccc(O)cc3)c3ccccc23)cc1S(=O)(=O)NCC1CCCO1 (stereo not given) | inconclusive: 31.6 µM [cytotoxic, single point] | 
COc1cccc(NC(=O)c2ccc(CNS(=O)(=O)c3ccc4c(c3)C(C)(C)C(=O)N4C)cc2)c1 | inconclusive: 39.8 µM [cytotoxic, single point] | 
CCNc1ncc2ncc(=O)n(Cc3cccs3)c2n1 | inconclusive: 22.4 µM [cytotoxic, partial curve, poor fit] | 
COc1cc(OC2CCN(C)CC2)ccc1Nc1ncc2c(n1)n(C1CCCC1)c(=O)n2C | inconclusive: 3.41 µM [cytotoxic, single point] | 
COc1ccc(CC(=O)NCc2ccc3c(c2)CCN3C(=O)c2ccc(C)cc2)cc1OC | inconclusive: 15.8 µM [cytotoxic, partial curve, poor fit] | 
Cc1cccc(OCC(=O)N2CCC(OC3CCN(C)CC3)CC2)c1 |  | inactive: -0.388%
Cn1ncc2c(C(=O)NCc3ccc(Cl)cc3)cc(-c3ccsc3)nc21 |  | inactive: -15.3%
Cc1ccc(-n2nc3c(N4CCCC(C(=O)NCCc5ccccc5)C4)nnc(C)c3c2C)cc1 (stereo not given) | inconclusive: 15.8 µM [cytotoxic, partial curve, poor fit] | 
Cc1ccccc1Nc1cc2c(nc1-c1ccccc1)nc(C(=O)NCCN(C)C)n2C | inconclusive: 28.2 µM [cytotoxic, partial curve, poor fit] | 
CCOc1ccccc1NC(=O)c1sc(-n2nc(C)c(CCC(C)C)c2C)nc1C | inconclusive: 14.1 µM [rising, partial curve, poor fit] | 
Cc1cccc(C)c1NC(=O)c1oc2c(c1C)-c1nn(Cc3ccccc3)cc1CC2 | inconclusive: 25.1 µM [cytotoxic, single point] | 

Compound | Potency | activity change, negative = cytotoxicity
Cc1nn(CC(=O)NCCN2CCCCCC2)c(=O)c2nc(-c3ccccc3)sc12 |  | inactive: -1.51%
O=C(c1ccc(F)cc1)N1CCN(c2nccc(Nc3ccccc3Cl)n2)CC1 |  | inactive: -9.49%
COc1ccccc1CN1COc2ccc3c(C)cc(=O)oc3c2C1 | inconclusive: 39.8 µM [rising, single point] | 
COc1cccc(Nc2ccc3nnc(-c4cc(OC)ccn4)n3n2)c1 |  | inactive: -24% [at 87.6 µM]
Cc1ccc2oc(C(=O)N(Cc3cccc(F)c3)C3CCS(=O)(=O)C3)c(C)c2c1 (stereo not given) | inconclusive: 8.91 µM [cytotoxic, partial curve, poor fit] | 
Cc1noc2c(NC3CCN(C)CC3)cc(-c3ccc(Cl)cc3)nc12 |  | inactive: -20.7% [at 87.6 µM]
CN(C)c1cc(=O)c2ccnc(-c3ccc(O)c(F)c3)c2o1 |  | inactive: 0.672% [at 87.6 µM]
COc1ccc(F)cc1-c1cccc(C(=O)O)c1 |  | inactive: 1.94% [at 87.6 µM]
Cc1ccsc1-c1nc(C2CC(=O)N(C3CCCCC3)C2)no1 (stereo not given) |  | inactive: 6.72%
C=CC(=O)N1CCN(C(=O)c2cc(-c3cc(Cl)ccc3Cl)c(Cl)cc2OC)CC1 | inconclusive: 0.844 µM [cytotoxic, full curve, poor fit] | 
CC(C)CCNC[C@H]1O[C@H](Cc2cc(CN3CCCCC3)on2)CC[C@@H]1O | inconclusive: 7.94 µM [cytotoxic, partial curve, poor fit] | 
COc1ccc(-c2nc3scc(CCNC(=O)c4cc(OC)cc(OC)c4)n3n2)cc1 | inconclusive: 5.62 µM [cytotoxic, full curve, poor fit] | 
CCn1c(=N)c(C(=O)NC2CCCC2)cc2c(=O)n3ccccc3nc21 | inconclusive: 2 µM [rising, full curve, poor fit] | 
COCCN1Cc2ccc(Nc3ccc(OC)cc3)nc2C(C)(C(=O)NC2CCC2)C1 (stereo not given) | inconclusive: 35.5 µM [cytotoxic, partial curve, poor fit] | 
COCc1cc(C)nc2sc3c(c12)NC(c1ccc(O)cc1)N(c1ccc(C)cc1)C3=O (stereo not given) | inconclusive: 25.1 µM [rising, partial curve] | 
Cc1ccc(-c2ccccc2CN2CCN([S+](=O)([O-])c3c(C)noc3C)CC2)cc1Cl |  | inactive: -3.39% [at 12.5 µM]
Cc1cc(C)c(CNC(=O)c2cc(-c3ccccc3C)cc3c2OCCN3C)c(=O)[nH]1 |  | inactive: 3.7% [at 87.6 µM]
c1ccc(-c2nc(-c3ccncc3)no2)c(OC2CCNC2)c1 (stereo not given) | inconclusive: 7.08 µM [rising, single point] | 
O=C(Nc1cccc2ccccc12)O[C@@H]1CO[C@H]2[C@@H]1OC[C@@H]2NC(=O)C1CCC1 |  | inactive: -2.85% [at 87.6 µM]
CN(Cc1ccc(-c2ccccc2)cc1)Cc1cccc(C(F)(F)F)c1 | inconclusive: 10 µM [rising, partial curve, poor fit] | 
CCN1CCC(N(Cc2ccc(F)cc2)C(=O)Nc2cc(Cl)ccc2C(=O)OC)CC1 | inconclusive: 12.6 µM [cytotoxic, partial curve] | 
O=C(NC1CCCCCC1)c1nc2sccn2c1-c1ccncc1 |  | inactive: -24.2% [at 87.6 µM]

Compound | Potency | activity change, negative = cytotoxicity
C[C@H]1[C@@H]2[C@H]3OC(=O)[C@H](C)C3CC[C@@]2(C)CC[C@@H]1NC(=O)c1ccncc1 (stereo not given in full) |  | inactive: -4.6% [at 87.6 µM]
Cc1noc(C)c1-c1cc2cc(CN(C)C)oc2c(NCCOc2ccccc2)n1 | inconclusive: 31.6 µM [cytotoxic, single point] | 
COc1ccc2c(CNCCc3ccccc3)c(C(=O)O)n(Cc3cccc(F)c3)c2c1 | inconclusive: 14.1 µM [cytotoxic, partial curve, poor fit] | 
COc1ccc2c(c1)CCN=C2C[C@H]1CN(C(=O)c2cccc(F)c2)CC[C@H]1CC(=O)O |  | inactive: -3.49%
CN(C)C[C@@H]1CN(Cc2ccccn2)C[C@H]1NC(=O)c1cccc(Cl)c1 |  | inactive: -5.14%
O=C1c2cc(N3CCOCC3)nc(-c3cnc4[nH]ccc4c3)c2CN1CC1CC1 |  | inactive: -15.5% [at 87.6 µM]
NC1CCC(n2cc(C(=O)NCc3ccccc3-n3cccn3)nn2)CC1 (stereo not given) |  | inactive: 9.64%
CC1CCC2(CC1)N=C(c1ccccc1)C(=O)N2CC(=O)Nc1ccc(F)c(Cl)c1 (stereo not given) | inconclusive: 39.8 µM [cytotoxic, single point] | 
CC(C)c1ccc(NC(=O)CN2C(=O)NC(c3ccccc3Cl)C3=C2COC3=O)cc1 (stereo not given) | inconclusive: 35.5 µM [cytotoxic, partial curve, poor fit] | 
COc1cccc(CNC(=O)CCNc2cnc3cnccn23)c1 | inconclusive: 20 µM [rising, single point] | 
Cc1oc(-c2cccc(Cl)c2)nc1CN1CCCC(C(=O)NCc2ccc(Cl)cc2)C1 (stereo not given) | inconclusive: 39.8 µM [cytotoxic, single point] | 
COc1cccc(C(=O)Nc2ccccc2-c2nc3ccccc3s2)c1 |  | inactive: 3.33%
CCc1cccc(C)c1NC(=O)CN1C(=O)C2(SCC(=O)N2c2cc(C)cc(C)c2)c2ccccc21 (stereo not given) | inconclusive: 5.01 µM [cytotoxic, full curve, poor fit] | 
CN(C)Cc1nnc(C2CCN(Cc3cnc(-c4ccccn4)nc3)CC2)n1C |  | inactive: -1.43%
CC(C=CC1=C(C)CCCC1(C)C)=CC=CC(C)=CC(=O)Nc1ccc(O)cc1 | inconclusive: 0.0156 µM [cytotoxic, full curve, poor fit] | 
C=CCNC(=O)N1CCOC(CN(CC(C)C)C(=O)c2ccccc2)C1 (stereo not given) |  | inactive: 7.4%
O=C(C1CCCC1)N1CCc2nc(C3CC3)nc(-c3ccc(O)cc3)c2CC1 | inconclusive: 39.8 µM [cytotoxic, single point] | 
O=C(NCc1ccncc1)c1ccc(-c2ccc(N3CCCCC3)nc2)cc1 | inconclusive: 28.2 µM [cytotoxic, single point] | 
O=C(C1CCCC1)N1CC2(CCN(C3CCCCC3)C2)Cc2ccccc21 (stereo not given) | inconclusive: 35.5 µM [cytotoxic, single point] | 
CN(C(=O)CSc1nc2ccccc2n1CC(=O)N(C)c1ccc(F)cc1)c1ccccc1 | inconclusive: 1.58 µM [cytotoxic, full curve, poor fit] | 
COc1cc(N2CCC(N(C)C)CC2)ccc1Nc1ncc(Cl)c(Nc2ccccc2P(C)(C)=O)n1 | inconclusive: 3.36 µM [cytotoxic, partial curve, poor fit] and inconclusive: 3.03 µM [cytotoxic, full curve] | 
